# Data as given in the supplement of paper PMC7826260.
# The list shows a part of the results. The data describe in vitro nicking of single-stranded DNA by Rep domains (1 h at 37 °C, 3 µM enzyme); the outer parts of the 90-letter strands are left off. Uncut reads are compared with the no-enzyme pool on a log2 scale; strong cutting gives strongly negative numbers. There is no active / inactive call. Shares of all reads are compared; where an enzyme cuts many sequences, the uncut ones exceed 0.
# Test system: T1, Rep nickase domain of tomato golden mosaic virus
# T1 sequence (residues 1-124 of Rep, tag left off): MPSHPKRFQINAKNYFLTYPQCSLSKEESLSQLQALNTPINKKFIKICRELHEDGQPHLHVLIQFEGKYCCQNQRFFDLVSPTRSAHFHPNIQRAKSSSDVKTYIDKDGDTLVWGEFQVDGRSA
# Experiment: uncleaved DNA left, log2 of reads against the no-enzyme library (log2 ratio); higher = less cleavage (more negative = more Rep cleavage of the k-mer); sequences stand for … in CTCGTCCG…ACCGGAGA
# Method: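 A pool of 90-nt single-stranded DNAs with seven random bases just before the constant AC of the nick site (name = the seven bases) was cut by 3 µM recombinant His6-SUMO-tagged Rep nickase domain (300 nM DNA, 50 mM HEPES pH 8.0, 50 mM NaCl, 1 mM MnCl2, 1 h, 37 °C, three replicates). Uncut DNA was amplified and sequenced.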
row,Sequence,uncleaved DNA left (log2)
1,CACCGCT,-0.0523
2,GCGGTCT,0.0267
3,AGCAAAA,0.0576
4,ACTCGGA,-0.0282
5,ACAATTC,0.00859
6,TATCCAT,0.026
7,AACATGT,0.0768
8,AAGATTG,0.182
9,TATGCGA,-0.127
10,TAGAGGC,0.0148
11,AGTCGAA,-0.0644
12,AAGCGTC,-0.0435
13,GAAGAAG,0.101
14,GAAATTG,0.00617
15,TTAGTAC,0.0723
16,AGCACGC,-0.0733
17,CGCGTGT,-0.137
18,CTTCTGC,-0.0616
19,TCTACAA,0.0187
20,AAGCGCT,-0.0824

row,Sequence,uncleaved DNA left (log2)
1,GGACATA,-0.00676
2,TTAGAAC,0.0221
3,ACTCCAT,0.00945
4,CCAGCTA,-0.137
5,AGGGAAG,0.104
6,CGTACGG,-0.0246
7,ACGATGC,0.0929
8,GATACTT,0.0286
9,AAATTCT,-4.42
10,TTCACGG,0.0695
11,AGTGCAG,0.0519
12,ATGAATC,0.118
13,GCGGCAG,0.113
14,ATACGCG,0.0101
15,TACATCT,-0.154
16,TCTAGTT,0.0415
17,TTATTCT,-1.18
18,TCATTGT,-0.108
19,GAAGGTA,0.0723
20,CTACGAT,0.052
